Assay results taken from the supplement of paper PMC4604168 (melanoma cell lines).
Some of the results follow. Repeats are few or missing, and single values can be far off.

Experiments:
Assay in all cases: cell count relative to DMSO control; melanoma cells; higher = more viable cells
Conditions in all cases: library dose: low library concentration; 72 h
[1] = system: WM115
[2] = system: WM1716
[3] = system: WM1745
[4] = system: WM3526
[5] = system: WM3619
[6] = system: WM451Lu
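Further: cell number obtained by counting DAPI-stained nuclei in high-throughput microscope images with image analysis software, screen run in 1,536-well plates.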

SMILES	cell count [1] [%]	cell count [2] [%]	cell count [3] [%]	cell count [4] [%]	cell count [5] [%]	cell count [6] [%]
Cc1nc(Nc2ncc(C(=O)Nc3c(C)cccc3Cl)s2)cc(N2CCN(CCO)CC2)n1 [dasatanib] + COc1cc2ncnc(Nc3ccc(Oc4ccccc4)cc3)c2cc1OC [SrcI1] (first compound 0.004 µM, partner dose 2 µM)	74.9	57.9	69	106	94.7	85.4
C[C@]1(c2nc3c(C(N)=O)cccc3[nH]2)CCCN1 [Veliparib] + CC1(C)NC(=O)N(c2ccc([N+](=O)[O-])c(C(F)(F)F)c2)C1=O [nilutamide] (first compound 1.4 µM, partner dose 1 µM)	85.9	83.3	87.8	100	97.9	118
Cc1nc(Nc2ncc(C(=O)Nc3c(C)cccc3Cl)s2)cc(N2CCN(CCO)CC2)n1 [dasatanib] + C[C@@H]1CCN(C(=O)CC#N)C[C@@H]1N(C)c1ncnc2[nH]ccc12 [CP690550] (first compound 0.004 µM, partner dose 1 µM)	77.4	57.8	58.7	94.7	124	96.1
OCCn1cc(-c2cnc3nnn(Cc4ccc5ncccc5c4)c3n2)cn1 + NCC(=O)Nc1ccc(-n2nc(C(F)(F)F)cc2-c2ccc3c(ccc4ccccc43)c2)cc1 [OSU03012] (first compound 1 µM, partner dose 1 µM)	84.7	106	96.6	47.7	100	77
NCC(=O)Nc1ccc(-n2nc(C(F)(F)F)cc2-c2ccc3c(ccc4ccccc43)c2)cc1 + O=C(O)C(=O)Nc1sc2c(c1C(=O)O)CCNC2 [TCS401] (first compound 1 µM, partner dose 1.66667 µM)	102	97.6	88.8	56.4	99.6	71
Cc1nc(Nc2ncc(C(=O)Nc3c(C)cccc3Cl)s2)cc(N2CCN(CCO)CC2)n1 [dasatanib] + C=CCn1c(=O)c2cnc(Nc3ccc(N4CCN(C)CC4)cc3)nc2n1-c1cccc(C(C)(C)O)n1 [MK1775] (first compound 0.004 µM, partner dose 0.02 µM)	69.8	67	53.1	102	80	66.8
NC(=O)Nc1cc(-c2cccc(F)c2)sc1C(=O)N[C@H]1CCCNC1 + O=C(Nc1cccc(Cl)c1)Nc1ncc(CCNc2ncnc3ccsc23)s1 [SNS314] (first compound 0.02 µM, partner dose 0.0008 µM)	78.3	84.4	93.6	93.5	83	93.3
OCCn1cc(-c2cnc3nnn(Cc4ccc5ncccc5c4)c3n2)cn1 + N#Cc1c(O)c2c(-c3ccc(-c4ccccc4O)cc3)csc2[nH]c1=O [A769662] (first compound 1 µM, partner dose 2 µM)	96.6	92.4	85.3	96.7	109	96.9
C[C@]1(c2nc3c(C(N)=O)cccc3[nH]2)CCCN1 [Veliparib] + COc1cc(N2CCC(N3CCN(C)CC3)CC2)ccc1Nc1ncc(Cl)c(Nc2ccccc2S(=O)(=O)C(C)C)n1 [NVP-TAE684] (first compound 1.4 µM, partner dose 0.08 µM)	73.1	94.4	77.9	94.4	78.4	84.6
CO[C@@H]1[C@H](N(C)C(=O)c2ccccc2)C[C@H]2O[C@]1(C)n1c3ccccc3c3c4c(c5c6ccccc6n2c5c31)C(=O)NC4 [Midostaurin] + COc1ccc(-c2ccc3c(N4CCOCC4)nc(N4C[C@@H](C)O[C@@H](C)C4)nc3n2)cc1CO [KU0063794] (first compound 0.08 µM, partner dose 0.02 µM)	88	83.8	92.2	95.2	65.7	104
C=CCn1c(=O)c2cnc(Nc3ccc(N4CCN(C)CC4)cc3)nc2n1-c1cccc(C(C)(C)O)n1 + O=c1cc(-c2cccc3c2Sc2ccccc2S3)oc(N2CCOCC2)c1 [KU55933] (first compound 0.02 µM, partner dose 1 µM)	92.2	107	72.4	84.3	38.5	104
C=CCn1c(=O)c2cnc(Nc3ccc(N4CCN(C)CC4)cc3)nc2n1-c1cccc(C(C)(C)O)n1 + O=C(O)C(=O)Nc1sc2c(c1C(=O)O)CCNC2 [TCS401] (first compound 0.02 µM, partner dose 1.66667 µM)	90.9	88.2	72.4	80.7	79.3	107
NC(=O)Nc1cc(-c2cccc(F)c2)sc1C(=O)N[C@H]1CCCNC1 + Cc1cc(N2CCOCC2)cc2[nH]c(-c3c(NC[C@@H](O)c4cccc(Cl)c4)cc[nH]c3=O)nc12 [BMS536924] (first compound 0.02 µM, partner dose 0.2 µM)	84.2	76.1	71.1	59.8	70.3	78.9
C[C@]1(c2nc3c(C(N)=O)cccc3[nH]2)CCCN1 [Veliparib] + O=C(O)c1ccc(-c2c[nH]c3ncc(-c4ccccc4)cc23)cc1C1CCCC1 [GSK650394] (first compound 1.4 µM, partner dose 0.16 µM)	81	87.1	80.1	92	73.9	104
C[C@]1(c2nc3c(C(N)=O)cccc3[nH]2)CCCN1 [Veliparib] + O=S(=O)(c1ccccc1)N(CC(F)(F)F)c1ccc(C(O)(C(F)(F)F)C(F)(F)F)cc1 [T0901317] (first compound 1.4 µM, partner dose 1.4 µM)	75.9	74.8	73.3	85.1	86.8	90.7
CO[C@@H]1[C@H](N(C)C(=O)c2ccccc2)C[C@H]2O[C@]1(C)n1c3ccccc3c3c4c(c5c6ccccc6n2c5c31)C(=O)NC4 [Midostaurin] + COC(=O)c1sccc1S(=O)(=O)Nc1ccc(Nc2ccccc2)cc1OC [GSK0660] (first compound 0.08 µM, partner dose 1 µM)	78	80.3	89.1	87.1	73	98.2
NC(=O)Nc1cc(-c2cccc(F)c2)sc1C(=O)N[C@H]1CCCNC1 + O=S(=O)(c1ccccc1)N(CC(F)(F)F)c1ccc(C(O)(C(F)(F)F)C(F)(F)F)cc1 [T0901317] (first compound 0.02 µM, partner dose 1.4 µM)	98.3	77.6	81.5	74.8	71.4	104
Cc1nc(Nc2ncc(C(=O)Nc3c(C)cccc3Cl)s2)cc(N2CCN(CCO)CC2)n1 [dasatanib] + COCC[n+]1c2c(n(Cc3cnccn3)c1C)C(=O)c1ccccc1C2=O [YM155] (first compound 0.004 µM, partner dose 0.0004 µM)	73.2	69.7	64	81.3	52.4	50.6
NCC(=O)Nc1ccc(-n2nc(C(F)(F)F)cc2-c2ccc3c(ccc4ccccc43)c2)cc1 + COc1cc2ncnc(Nc3ccc(Oc4ccccc4)cc3)c2cc1OC [SrcI1] (first compound 1 µM, partner dose 2 µM)	94	100	97.7	56.1	90.3	51.3
NCC(=O)Nc1ccc(-n2nc(C(F)(F)F)cc2-c2ccc3c(ccc4ccccc43)c2)cc1 + COc1cc2c(Oc3ccc4[nH]c(C)cc4c3F)ncnc2cc1OCCCN1CCCC1 [cediranib] (first compound 1 µM, partner dose 0.4 µM)	80.1	95.4	95.4	46	110	54.7
OCCn1cc(-c2cnc3nnn(Cc4ccc5ncccc5c4)c3n2)cn1 + O=C(Nc1cccc(Cl)c1)Nc1ncc(CCNc2ncnc3ccsc23)s1 [SNS314] (first compound 1 µM, partner dose 0.0008 µM)	98.8	103	115	92.9	88.8	99.4
NCC(=O)Nc1ccc(-n2nc(C(F)(F)F)cc2-c2ccc3c(ccc4ccccc43)c2)cc1 + O=C1NC(=O)/C(=C/c2ccc(-c3ccc(F)cc3O)o2)S1 [AS252424] (first compound 1 µM, partner dose 1 µM)	103	81.2	108	49.1	112	64.9
OCCn1cc(-c2cnc3nnn(Cc4ccc5ncccc5c4)c3n2)cn1 + COc1ccc(-c2ccc3c(N4CCOCC4)nc(N4C[C@@H](C)O[C@@H](C)C4)nc3n2)cc1CO [KU0063794] (first compound 1 µM, partner dose 0.02 µM)	95.6	107	94.2	97.9	105	62.3
NCC(=O)Nc1ccc(-n2nc(C(F)(F)F)cc2-c2ccc3c(ccc4ccccc43)c2)cc1 + O=S(=O)(c1ccccc1)N(CC(F)(F)F)c1ccc(C(O)(C(F)(F)F)C(F)(F)F)cc1 [T0901317] (first compound 1 µM, partner dose 1.4 µM)	88.4	89.2	84.6	49.7	82.1	61.2
